# Measurements from the BET-seq Pho4 binding data (Le et al. 2018).
# The other results are listed elsewhere or left out. The energies were worked out here from pooled read counts, against the library average; single values are noisy.
# Target: T1, Pho4 (S. cerevisiae) (UniProt P07270)
# T1 sequence: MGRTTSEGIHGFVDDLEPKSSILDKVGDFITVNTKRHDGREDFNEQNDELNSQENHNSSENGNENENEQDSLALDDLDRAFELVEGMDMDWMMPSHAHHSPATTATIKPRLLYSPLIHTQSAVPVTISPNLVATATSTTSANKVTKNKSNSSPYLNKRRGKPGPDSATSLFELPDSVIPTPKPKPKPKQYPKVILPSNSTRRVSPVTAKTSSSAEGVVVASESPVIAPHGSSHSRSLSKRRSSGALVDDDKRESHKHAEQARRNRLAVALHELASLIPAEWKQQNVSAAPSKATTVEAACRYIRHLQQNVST
# Assay: relative binding free energy (BET-seq); higher = weaker binding
# Settings: reference: library average
row,Sequence,relative binding free energy [kcal/mol]
1,TAAAACACGTGTTTGA,-0.08
2,GGGACCACGTGGTGTT,-0.13
3,TGAGTCACGTGGCAGG,-0.01
4,AGGAGCACGTGGTAGA,-0.26
5,TTATGCACGTGTTGGC,0.13
6,AGCATCACGTGGGGGA,0.02
7,TCTTGCACGTGATTTA,0.01
8,CGATGCACGTGCGTGT,0.05
9,GGGTTCACGTGGGGGC,0.14
10,CTAAGCACGTGCGGGT,-0.14
11,TTCCTCACGTGGGTTG,0.05
12,GGAGGCACGTGTTGTT,-0.07
13,AGTATCACGTGGGGTG,-0.02
14,TCTAGCACGTGTGGGT,0.03
15,GATATCACGTGGGGTG,0
16,TATAGCACGTGGAGCG,-0.09
17,GGTCTCACGTGGTTTG,0.15
18,ATAGGCACGTGAGCTT,0.03
19,TGTGTCACGTGCGTGA,-0.05
20,GATGACACGTGCTGGG,0.03
21,CGGCGCACGTGCTGGG,-0.07
22,CCGGGCACGTGGGGAT,-0.16
23,AGTATCACGTGGAATG,0.27

row,Sequence,relative binding free energy [kcal/mol]
1,CTCGTCACGTGTTAGG,0
2,TTAGCCACGTGGATTT,0.03
3,AGCATCACGTGTTGGA,0.11
4,AGTAGCACGTGGGCAG,-0.21
5,GTCGTCACGTGAGGTG,0.28
6,GGCAGCACGTGTGGGT,0.04
7,AATGACACGTGGGCGT,-0.15
8,GTCACCACGTGGTGTG,-0.12
9,TCTTGCACGTGAGTGA,0.06
10,GGTATCACGTGTTGCG,0.12
11,AGATTCACGTGGGTGG,0.25
12,TTACGCACGTGAGCGG,0.14
13,TGGGTCACGTGGGTCA,-0.01
14,TCGGGCACGTGGTCGT,-0.11
15,TAAAACACGTGGGTGC,0.08
16,TGGTTCACGTGTGAAA,0.37
17,TGTCTCACGTGGAGGG,0.09
18,GGTGACACGTGCTTAG,0.02
19,GGGGTCACGTGTAAGT,0.35
20,GCTTGCACGTGATTGG,0.07
21,TTATTCACGTGCGATA,0.29
22,TTGTTCACGTGAAACG,0.31
23,CGTGCCACGTGGGTTG,-0.23

row,Sequence,relative binding free energy [kcal/mol]
1,GGTAACACGTGAGAAG,0.36
2,GCGAACACGTGTGGGT,0.15
3,AAGGTCACGTGATAGT,0.21
4,TATGGCACGTGCGTTG,-0.07
5,AAGTACACGTGGGTAT,-0.03
6,AGGTTCACGTGAAGCG,0.43
7,AATATCACGTGGTGTA,-0.01
8,AGTTTCACGTGAAGTC,0.33
9,AGGTCCACGTGGAGGT,-0.06
10,TCGGTCACGTGTTAGT,-0.02
11,GTGTTCACGTGGGGAC,0.19
12,GCTTTCACGTGTGGTC,0.4
13,TGGAGCACGTGAGGTA,0.2
14,AGTGCCACGTGTGGTG,-0.05
15,TAATTCACGTGTGGCG,0.31
16,GTTTTCACGTGAGTAT,0.23
17,AGTGGCACGTGTTGAG,-0.06
18,GATTACACGTGCTGTA,0.24
19,TGTGACACGTGTGGTT,0.1
20,TGAGGCACGTGATGCT,-0.01
21,TATTGCACGTGAGGCA,0.27
22,ACGTTCACGTGGGATG,0.01
23,ACGTACACGTGAGTGT,0.24

row,Sequence,relative binding free energy [kcal/mol]
1,ATGGGCACGTGAGAAG,0.18
2,GTGGGCACGTGGAGTT,0.08
3,CTTGGCACGTGGGGAC,-0.24
4,TTTATCACGTGGTTTT,0.24
5,TGAGTCACGTGATCTT,0.08
6,TGCTGCACGTGGGCTG,-0.28
7,TAGGCCACGTGCTTGG,-0.22
8,AGGTGCACGTGCTTGA,-0.09
9,GGTTACACGTGAGGTT,0.26
10,CTGCTCACGTGGGTGG,0.09
11,AAGTTCACGTGTAGCG,0.21
12,TCGTGCACGTGTCTGT,-0.11
13,AAGAGCACGTGTTGAT,-0.02
14,AAAGTCACGTGCTGGT,-0.04
15,GATGGCACGTGGCGTT,-0.05
16,CTAGTCACGTGATGTT,0.19
17,CCTTTCACGTGGTGGG,0.33
18,AGCGCCACGTGCGGGT,-0.14
19,TTCGTCACGTGAGTTT,0.49
20,GTAGGCACGTGGGCGT,-0.19
21,GCGTTCACGTGTTGGA,0.31
22,GTAAACACGTGGTCGG,-0.05
23,TTTTGCACGTGAATGA,0.19

row,Sequence,relative binding free energy [kcal/mol]
1,AAGGTCACGTGTAGGC,0.09
2,CATTTCACGTGTGTGA,0.23
3,TGGCTCACGTGGATAT,0.24
4,TGATTCACGTGATAGA,0.28
5,GATGCCACGTGGGTTG,-0.09
6,TGTGTCACGTGCATGC,-0.1
7,TTGTTCACGTGACGTC,0.37
8,TGGCACACGTGTGTAT,-0.03
9,TGTTTCACGTGGAACT,0.24
10,AGGTCCACGTGGAGTT,0.05
11,CAGTGCACGTGTGTAT,-0.13
12,TGCGTCACGTGGGCGA,0
13,ATAGGCACGTGTGGCA,-0.1
14,TGGAGCACGTGATGGA,0.02
15,AGGGTCACGTGTGATT,0.22
16,CGGTGCACGTGGGATG,-0.08
17,ATGGACACGTGCGGTT,0
18,AAAGGCACGTGATTTA,-0.01
19,AGTAACACGTGTGTAT,-0.06
20,TAAGGCACGTGTGTTC,0
21,CGTGGCACGTGGCGTC,-0.13
22,GTAAGCACGTGTTTTG,-0.09
23,TTTGGCACGTGGATAG,-0.13
